# Where a name gives a salt, the structure may show the parent alone. Read-outs that look alike come from different tables or passages of the source.
# Key:
# [1] = tested on: fibrin-induced microglia activation; assay: Image-based assay of fibrin-induced microglia activation (HTS and dose response); format: cell-based, rat; conditions: for inhibition at 10 µM: read-out: Fibrin % inhibition
# [2] = tested on: LPS-induced microglia activation; assay: Image-based assay of LPS-induced microglia activation (HTS and dose response); format: cell-based, rat; conditions: for inhibition at 10 µM / IC50: Rattus norvegicus, Microglia; for inhibition at 10 µM: read-out: LPS % inhibition
# [3] = tested on: fibrin- and LPS-induced microglia activation; format: cell-based, rat
# in vitro [4] = conditions: rat
# in vitro [5] = conditions: rat, Cell Toxicity IC50 (uM) [cFib assay]
# [6] = Rattus norvegicus, Microglia, read-out: fib_IC50 (uM)
# [7] = Rattus norvegicus, Microglia, 48 h, read-out: Fibrin IC50
# [8] = Rattus norvegicus, Microglia, read-out: Fibrin IC50 (uM)
# [9] = Rattus norvegicus, Microglia, read-out: Fibrin IC50 (uM) (Suppl. Table 7)
# [10] = read-out: LPS IC50 (uM) (Suppl. Table 7)
smiles,measurement,setting,value
CCN(CC)CCOC(=O)C1(C2CCCCC2)CCCCC1 [Dicyclomine],inhibition at 10 µM,"[1]; Rattus norvegicus, Microglia",-36%
same,inhibition at 10 µM,[2],16%
Clc1ccc(CSC(Cn2ccnc2)c2ccc(Cl)cc2Cl)cc1 (centres unmarked) [Sulconazole],inhibition at 10 µM,"[1]; Rattus norvegicus, Microglia",10%
same,inhibition at 10 µM,[2],13%
"CN1CCN(CCCN2c3ccccc3Sc3ccc(Cl)cc32)CC1 [Prochlorperazine dimaleate, reference compound]",IC50,[1]; [6],4.38 µM
same,IC50,[2]; read-out: LPS_IC50 (uM),2.01 µM
Clc1ccc(CO/N=C(\Cn2ccnc2)c2ccc(Cl)cc2Cl)c(Cl)c1 [Oxiconazole],inhibition at 10 µM,"[1]; Rattus norvegicus, Microglia",12%
same,inhibition at 10 µM,[2]; 48 h,15%
"Clc1ccc(COC(Cn2ccnc2)c2ccc(Cl)cc2Cl)c(Cl)c1 (centres unmarked) [Miconazole nitrate, reference compound]",IC50,[1]; [7],20 µM
same,IC50,[1]; [8],20 µM
same,IC50,[1]; [9],20 µM
same,IC50,"[2]; 48 h, read-out: LPS IC50",> 20 µM
same,IC50,[2]; read-out: LPS IC50 (uM),> 20 µM
same,IC50,[2]; [10],> 20 µM
"C[C@@H]1C[C@H]2[C@@H]3CCC4=CC(=O)C=C[C@]4(C)[C@@]3(F)[C@@H](O)C[C@]2(C)[C@@]1(O)C(=O)COP(=O)(O)O [Dexamethasone sodium phosphate, reference compound]",Activity,[3],fib/LPS
same,Fibrin % inhibition,[1],112%
same,IC50,[1]; [7],0.004 µM
same,IC50,[1]; [8],0.004 µM
same,IC50,[1]; [9],0.004 µM
same,IC50,[1]; [6],0.002 µM
same,IC50,in vitro [4],> 20 µM
same,IC50,in vitro [5],> 20 µM
same,LPS % inhibition,[2],100%
same,IC50,"[2]; 48 h, read-out: LPS IC50",2 µM
same,IC50,[2]; read-out: LPS IC50 (uM),2 µM
same,IC50,[2]; [10],2 µM
same,IC50,[2]; read-out: LPS_IC50 (uM),0.005 µM
"CSc1ccc2c(c1)N(CCC1CCCCN1C)c1ccccc1S2 (centres unmarked) [Thioridazine hydrochloride, reference compound]",IC50,[1]; [6],1.01 µM
same,IC50,[2]; read-out: LPS_IC50 (uM),0.677 µM
Cc1ccccc1C(OCCN(C)C)c1ccccc1 (centres unmarked) [Orphenadrine],inhibition at 10 µM,"[1]; Rattus norvegicus, Microglia",-17%
same,inhibition at 10 µM,[2]; 48 h,10%
C[C@@H]1C[C@H]2[C@@H]3CCC4=CC(=O)C=C[C@]4(C)[C@@]3(F)[C@@H](O)C[C@]2(C)[C@@]1(O)C(=O)COP(=O)(O)O [Dexamethasone Phosphate],inhibition at 10 µM,"[1]; Rattus norvegicus, Microglia",103%
same,inhibition at 10 µM,[2]; 48 h,93%
CCN(CC)C(=O)N[C@H]1C=C2c3cccc4[nH]cc(c34)C[C@H]2N(C)C1 [Lisuride],inhibition at 10 µM,"[1]; Rattus norvegicus, Microglia",-27%
same,inhibition at 10 µM,[2]; 48 h,-9%
"COc1cc2c(c(OC)c1OC)-c1ccc(OC)c(=O)cc1[C@@H](NC(C)=O)CC2 [Colchicine, reference compound]",IC50,[1]; [6],0.022 µM
same,IC50,[1]; read-out: fib_IC50,0.015 µM
CN(C)CCN(Cc1cccs1)c1ccccn1 [Methapyrilene],inhibition at 10 µM,"[1]; Rattus norvegicus, Microglia",17%
same,inhibition at 10 µM,[2]; 48 h,13%
Clc1ccc2c(c1)CCc1cccnc1C2=C1CCNCC1 [Desloratadine],inhibition at 10 µM,[2],45%
C(=C\c1ccccc1)/CN1CCN(C(c2ccccc2)c2ccccc2)CC1 [Cinnarizine],inhibition at 10 µM,"[1]; Rattus norvegicus, Microglia",-32%
same,inhibition at 10 µM,[2],-2%
CCCCCCCCCCCCCCCC[n+]1ccccc1 [Cetylpyridinium Bromide],inhibition at 10 µM,"[1]; Rattus norvegicus, Microglia",112%
same,inhibition at 10 µM,[2]; 48 h,114%
"Clc1ccc2c(c1)C(N1CCNCC1)=Nc1ccccc1O2 [Amoxapine, reference compound]",IC50,[1]; [7],20 µM
same,IC50,[1]; [8],20 µM
same,IC50,[1]; [9],20 µM
same,IC50,"[2]; 48 h, read-out: LPS IC50",11 µM
same,IC50,[2]; read-out: LPS IC50 (uM),11 µM
same,IC50,[2]; [10],11 µM

# Source: patent publication US20210330611A1, “THERAPY FOR NEUROLOGICAL DISEASES/DISORDERS” (priority 2020, published 2021)
